# Laboratory results published in the supplement of paper PMC8728848.
# This is one part of the list.
# Experiments:
# Experiment in all cases: glycan array binding signal (z-score within array); higher = stronger binding
# Details in all cases: glycan notation: IUPAC condensed, linker removed; mutation: Y228W
# [1] = biological target: Neu5Ac(a2-3)Gal(b1-3)GlcNAc(b1-6)GalNAc
# In short: (§1)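 From the Consortium for Functional Glycomics database, 3228 arrays were curated, keeping only those whose protein sequence was available. Binding is given as a within-array Z-score averaged across arrays sharing a protein sequence and across linkers. Negative Z-scores can be read as non-binding.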
# [2] = biological target: Neu5Ac(a2-3)Gal(b1-3)GlcNAc6S
# In short: as §1
# [3] = biological target: Neu5Ac(a2-3)Gal(b1-3)[Fuc(a1-4)]GlcNAc
# In short: as §1
# [4] = biological target: Neu5Ac(a2-3)Gal(b1-3)[Fuc(a1-4)]GlcNAc(b1-3)Gal(b1-3)[Fuc(a1-4)]GlcNAc
# In short: as §1
# [5] = biological target: Neu5Ac(a2-3)Gal(b1-3)[Fuc(a1-4)]GlcNAc(b1-3)Gal(b1-4)[Fuc(a1-3)]GlcNAc
# In short: as §1
# [6] = biological target: Neu5Ac(a2-3)Gal(b1-3)[GlcNAc(b1-6)]GalNAc
# In short: as §1
# [7] = biological target: Neu5Ac(a2-3)Gal(b1-3)[Neu5Ac(a2-6)]GalNAc
# In short: as §1
# [8] = biological target: Neu5Ac(a2-3)Gal(b1-3)[Neu5Ac(a2-6)]GlcNAc(b1-3)[Fuc(a1-3)[Gal(b1-4)]GlcNAc(b1-6)]Gal(b1-4)Glc
# In short: as §1
# [9] = biological target: Neu5Ac(a2-3)Gal(b1-3)]Neu5Ac(a2-3)Gal(b1-4)]GlcNAc
# In short: as §1
# Neu5Ac(a2-3)Gal(b1-4)Glc = biological target: Neu5Ac(a2-3)Gal(b1-4)Glc
# In short: as §1
# [10] = biological target: Neu5Ac(a2-3)Gal(b1-4)GlcNAc
# In short: as §1
# [11] = biological target: Neu5Ac(a2-3)Gal(b1-4)GlcNAc(b1-2)Man
# In short: as §1
# [12] = biological target: Neu5Ac(a2-3)Gal(b1-4)GlcNAc(b1-2)Man(a1-3)[GlcNAc(b1-4)][Neu5Ac(a2-3)Gal(b1-4)GlcNAc(b1-2)Man(a1-6)]Man(b1-4)GlcNAc(b1-4)GlcNAc
# In short: as §1
# [13] = biological target: Neu5Ac(a2-3)Gal(b1-4)GlcNAc(b1-2)Man(a1-3)[Neu5Ac(a2-3)Gal(b1-4)GlcNAc(b1-2)Man(a1-6)]Man(b1-4)GlcNAc(b1-4)GlcNAc
# In short: as §1
# [14] = biological target: Neu5Ac(a2-3)Gal(b1-4)GlcNAc(b1-2)Man(a1-3)[Neu5Ac(a2-3)Gal(b1-4)GlcNAc(b1-2)Man(a1-6)]Man(b1-4)GlcNAc(b1-4)[Fuc(a1-6)]GlcNAc
# In short: as §1
# [15] = biological target: Neu5Ac(a2-3)Gal(b1-4)GlcNAc(b1-2)Man(a1-3)[Neu5Ac(a2-6)Gal(b1-4)GlcNAc(b1-2)Man(a1-6)]Man(b1-4)GlcNAc(b1-4)GlcNAc
# In short: as §1
# [16] = biological target: Neu5Ac(a2-3)Gal(b1-4)GlcNAc(b1-2)[Neu5Ac(a2-3)Gal(b1-4)GlcNAc(b1-4)]Man(a1-3)[GlcNAc(b1-4)][Neu5Ac(a2-3)Gal(b1-4)GlcNAc(b1-2)[Neu5Ac(a2-3)Gal(b1-4)GlcNAc(b1-6)]Man(a1-6)]Man(b1-4)GlcNAc(b1-4)GlcNAc
# In short: as §1
# [17] = biological target: Neu5Ac(a2-3)Gal(b1-4)GlcNAc(b1-2)[Neu5Ac(a2-3)Gal(b1-4)GlcNAc(b1-4)]Man(a1-3)[GlcNAc(b1-4)][Neu5Ac(a2-3)Gal(b1-4)GlcNAc(b1-4)Man(a1-6)]Man(b1-4)GlcNAc(b1-4)GlcNAc
# In short: as §1
# [18] = biological target: Neu5Ac(a2-3)Gal(b1-4)GlcNAc(b1-2)[Neu5Ac(a2-3)Gal(b1-4)GlcNAc(b1-6)]Man(a1-6)[Neu5Ac(a2-3)Gal(b1-4)GlcNAc(b1-2)Man(a1-3)][GlcNAc(b1-4)]Man(b1-4)GlcNAc(b1-4)GlcNAc
# In short: as §1
# [19] = biological target: Neu5Ac(a2-3)Gal(b1-4)GlcNAc(b1-3)Gal
# In short: as §1
# [20] = biological target: Neu5Ac(a2-3)Gal(b1-4)GlcNAc(b1-3)Gal(b1-3)GlcNAc
# In short: as §1
# [21] = biological target: Neu5Ac(a2-3)Gal(b1-4)GlcNAc(b1-3)Gal(b1-4)GlcNAc
# In short: as §1
# [22] = biological target: Neu5Ac(a2-3)Gal(b1-4)GlcNAc(b1-3)Gal(b1-4)GlcNAc(b1-2)Man(a1-3)[Neu5Ac(a2-3)Gal(b1-4)GlcNAc(b1-3)Gal(b1-4)GlcNAc(b1-2)Man(a1-6)]Man(b1-4)GlcNAc(b1-4)GlcNAc
# In short: as §1
# [23] = biological target: Neu5Ac(a2-3)Gal(b1-4)GlcNAc(b1-3)Gal(b1-4)GlcNAc(b1-3)Gal(b1-4)GlcNAc
# In short: as §1
# [24] = biological target: Neu5Ac(a2-3)Gal(b1-4)GlcNAc(b1-3)Gal(b1-4)GlcNAc(b1-3)Gal(b1-4)GlcNAc(b1-2)Man(a1-3)[Neu5Ac(a2-3)Gal(b1-4)GlcNAc(b1-3)Gal(b1-4)GlcNAc(b1-3)Gal(b1-4)GlcNAc(b1-2)Man(a1-6)]GalNAc
# In short: as §1
# [25] = biological target: Neu5Ac(a2-3)Gal(b1-4)GlcNAc(b1-3)Gal(b1-4)GlcNAc(b1-3)GalNAc
# In short: as §1
# [26] = biological target: Neu5Ac(a2-3)Gal(b1-4)GlcNAc(b1-3)Gal(b1-4)GlcNAc(b1-3)[Neu5Ac(a2-3)Gal(b1-4)GlcNAc(b1-3)Gal(b1-4)GlcNAc(b1-6)]GalNAc
# In short: as §1
# [27] = biological target: Neu5Ac(a2-3)Gal(b1-4)GlcNAc(b1-3)Gal(b1-4)GlcNAc(b1-6)[Gal(b1-3)]GalNAc
# In short: as §1
# [28] = biological target: Neu5Ac(a2-3)Gal(b1-4)GlcNAc(b1-3)Gal(b1-4)[Fuc(a1-3)]GlcNAc
# In short: as §1
# [29] = biological target: Neu5Ac(a2-3)Gal(b1-4)GlcNAc(b1-3)GalNAc
# In short: as §1
binder,measurement,setting,value
"Epa1-NP-mutant-Y228W (Candida glabrata), Q6VBJ0 (protein) MILNPALFLNKCVCIYTTLILLLLTNGGYATSSNDISLASKDPTTFPLGCSPDITTPKKGLSMELYSYDFRKKGSYPCWDAAYLDPNYPRTGYKSHRLLAKVDGVTGNINFYYHATKGCTPQLGHLPASYNYPKPLTMTNFTMLLYGYFRPKVTGFHTFTISADDLLFVNFGAGNAFDCCRRDSSADHFGNYQAYAIWGSKTAKDELTVHLDAGVYYPIRLFYNNREWDGALSFTFKTESNENTVSDFSEYFFSLDDTEEGCPGLISYDSSCASVKTSKIIGIDYHTETPNENLVPITKTIYHLGIPCTGTTTTPLCGSGFYDPLANKCVTINTSSTSSVTKTTSHTTSKEVSFHSSISSQKTLIPKSIPSPYGPIKSQSIPTEMETSSEISSSEYAFSDVISTPSHSPYTKKHSSLNSSSYTSTVIHSLTSYSISQGIFSTSLSEQNITSKSSTDKFSTATSMSNNITQSSIIISQFSTNNENYTTTSMHTSSDKISTETLNNSISTTTSILFSNSSTILKNNTTIISSDKDTHYHPVNPTIVCSTNKTEIICASITQPSISNSNNHWSSSVLKFNSTTVRSTLPSSAGSNETSINVPFSSSTESNTSTSSTSTSNSKMVRSTLPSSAGSNETSISVPFSSSTESNTSTSSTSTSNSKMVRSTLPSSAGSNETSINVPFSSSTESNTSTSSTSTSNSKTVRSTPFSSAGIIMTSLSQRNNKSASSYASSNSKCYNTADSCRKVHSTPSYLLTSSYTSEGVDYDCSLVSTKLKINDTNCVNNKHTTKSCLKTSVTTTIPTLEIKTARKSSSNTIGLHSYPTSSPNKSISSAPIIGYISSFKTIKTASPSYQTSDLTTITTITSLNNPGSTAVENTHESNDKSRKTSSNDISSKHSVIKETKDAVESSNKSHQTNTLKCSSIIIASSSHNSYESLGGTTLTLTLSKVYSPQNNDTLPFLEISEVNPSRTVLPESSKMMQYLTSTEERNKTARNTIATNIVSISTFHFEGEGNAIRMGYTQLLLMLIGIIVMNIGT",glycan array binding signal (z-score),[1],0.035
same,glycan array binding signal (z-score),[2],-0.071
same,glycan array binding signal (z-score),[3],-0.23
same,glycan array binding signal (z-score),[4],-0.315
same,glycan array binding signal (z-score),[5],0.021
same,glycan array binding signal (z-score),[6],-0.329
same,glycan array binding signal (z-score),[7],-0.207
same,glycan array binding signal (z-score),[8],-0.102
same,glycan array binding signal (z-score),[9],-0.097
same,glycan array binding signal (z-score),Neu5Ac(a2-3)Gal(b1-4)Glc,-0.082
same,glycan array binding signal (z-score),[10],-0.201
same,glycan array binding signal (z-score),[11],-0.205
same,glycan array binding signal (z-score),[12],-0.129
same,glycan array binding signal (z-score),[13],0.026
same,glycan array binding signal (z-score),[14],0.036
same,glycan array binding signal (z-score),[15],-0.29
same,glycan array binding signal (z-score),[16],-0.37
same,glycan array binding signal (z-score),[17],-0.359
same,glycan array binding signal (z-score),[18],-0.128
same,glycan array binding signal (z-score),[19],-0.181
same,glycan array binding signal (z-score),[20],-0.125
same,glycan array binding signal (z-score),[21],-0.227
same,glycan array binding signal (z-score),[22],-0.502
same,glycan array binding signal (z-score),[23],-0.303
same,glycan array binding signal (z-score),[24],0.581
same,glycan array binding signal (z-score),[25],-0.379
same,glycan array binding signal (z-score),[26],-0.19
same,glycan array binding signal (z-score),[27],-0.529
same,glycan array binding signal (z-score),[28],-0.295
same,glycan array binding signal (z-score),[29],-0.092
